The other results are listed elsewhere or left out.
Each compound was assayed on T1, C. trachomatis L2/434/Bu expressing GFP (CTL2-GFP). Conditions: total inclusion area; 28.5 h, 10 µM; inhibitor.
T1 construct: L2/434/Bu GFP intracellular growth in HeLa cells
Set-up: species or system HeLa; C. trachomatis total inclusion area by high-content imaging, normalised to DMSO
How it was run: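 After bulk GFP and resorufin fluorescence reads, cells were fixed, stained with Hoechst and imaged by high-content microscopy. Inclusion area and number (GFP) stood in for chlamydial growth, nuclei count (Hoechst) for host cell viability. MICs were derived as for the bulk readout.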

| Compound | % of control remaining |
| --- | --- |
| CCCn1nnc(NC(=O)C(C)Oc2ccc(Cl)cc2Cl)n1 (centres unmarked) [CBK266772] | 103.32 |
| Cn1c(=O)oc2cc(S(=O)(=O)N3CCN(C4CCCCC4)CC3)ccc21 [CBK268865] | 101.641 |
| COc1ccc(CN2CCCN(S(=O)(=O)c3ccc(C(=O)c4ccccc4)cc3)CC2)cc1F [CBK062855] | 71.3655 |
| CCn1c(SCC(=O)Nc2c(Cl)cc(Cl)cc2Cl)nnc1-c1ccccc1F [CBK268609] | 96.0415 |
| O=C(c1ccc2ccccc2c1)N1CCC2(CC1)CN(Cc1ccccc1)CCO2 [CBK161118A] | 93.8963 |
| O=C(Nc1ccc(F)cc1)c1[nH]c2ccccc2c1NS(=O)(=O)c1cc(Cl)sc1Cl [CBK050094] | 33.9644 |
| Cc1cccc(N2CCN(CCCOc3ccc(F)c(F)c3)CC2)n1 [CBK025158C] | 93.0348 |
| NS(=O)(=O)c1cc(C(=O)O)ccc1Cl [CBK113676] | 146.385 |
| O=C(NNC(=O)c1cc2ccccc2cc1O)Nc1cccc([N+](=O)[O-])c1 [CBK266882] | 103.589 |
| CC(=O)c1ccc(-c2cnc(Nc3ccc(N4CCOCC4)cc3)c3nccn23)s1 [CBK091231] | 157.559 |
| Cc1ccc(N(CC(=O)Nc2cccnc2)S(=O)(=O)c2ccc(F)cc2)cc1 [CBK263332] | 78.8199 |
| O=C(c1ccccc1Br)N1CCCCC1 [CBK028504] | 35.6023 |
| CC1C(=O)N(c2ccc(Cl)c(Cl)c2)C(=N)N1c1nc(N(C)C)nc(N(C)C)n1 (centres unmarked) [CBK263182] | 111.68 |
| Cn1nc(C2CCCN(C(=O)c3cccc(F)c3)C2)c2cccnc21 (centres unmarked) [CBK282155] | 106.065 |
| Cc1nc(N2CCCCC2)ncc1C(=O)NCc1nonc1C [CBK307243] | 87.5318 |
| CC(=O)N1CCCC(c2[nH]c3cccnc3c2CN(C)C)C1 (centres unmarked) [CBK283469] | 85.3982 |
| O=C(Nc1cccc(-c2nnn[nH]2)c1)c1ccc(C2CCCCC2)cc1 [CBK296712] | 88.1762 |
| Cc1nc(S(=O)(=O)N2CCC(C(=O)N3CCCCC3)CC2)cn1C [CBK305963] | 43.1354 |
| CC(=O)c1ccc(-c2ccc(C(=O)N(C)CCN(C)C)c(N(C)C)n2)s1 [CBK106071] | 107.086 |
| CC(C)c1ccc(/C=C/C(=O)NCc2ccccc2)cc1 [CBK149635] | 104.201 |
| OCCCN1CCC(Oc2cncc(OCCN3CCOCC3)n2)C1 (centres unmarked) [CBK084494] | 91.3306 |
| COc1ccc2c(c1)C1(CC(=O)N(CC(=O)N(C)C)C1=O)C(=O)N2CC(=O)c1ccccc1 (centres unmarked) [CBK075913] | 94.1725 |
| CCOC(=O)C(Cc1ccccc1)NC(=O)c1ccc(C)nc1 (centres unmarked) [CBK305952] | 69.5981 |
| COc1cc2c(cc1NC(=O)C/C(C)=N/NC(=O)c1ccccc1F)oc1ccccc12 [CBK262437] | 102.932 |
| CS(=O)(=O)N1C[C@@H]2CCCCN(Cc3cccc(F)c3F)[C@@H]2C1 [CBK285513] | 84.2671 |
| CC(=O)Nc1ccc(-c2ccc(C(=O)NCc3ccc(OC(F)(F)F)cc3)cn2)cc1 [CBK158830] | 103.932 |
| CC(=O)Nc1ccc(F)c(NC(=O)NCC2CCOC2)c1 (centres unmarked) [CBK304388] | 96.6723 |

| Compound | % of control remaining |
| --- | --- |
| O=C(Nc1cccc2cccnc12)c1ccc([N+](=O)[O-])o1 [CBK268007] | 54.9135 |
| O=C(O)c1ccc(S(=O)(=O)N2CCOCC2)cc1 [CBK287201] | 106.969 |
| S=C(NCCCN1CCOCC1)Nc1ccccc1Cl [CBK264599] | 98.0065 |
| Cn1cc(CN2CCN(CC3(c4ccccc4)CC3)CC2)cn1 [CBK282794] | 72.4068 |
| Cc1ccc(S(=O)(=O)NC(C)C(=O)Nc2cc(C(F)(F)F)ccc2Cl)cc1 (centres unmarked) [CBK266546] | 93.5506 |
| Cn1nccc1CN1CCCC(COc2ccc(F)cc2)C1 (centres unmarked) [CBK281899] | 95.3697 |
| O=[N+]([O-])c1ccccc1S(=O)(=O)Nc1cc(C(F)(F)F)ccc1Cl [CBK015721] | 85.3559 |
| COCCN1CC(CNC(=O)c2cccc(F)c2O)CC1=O (centres unmarked) [CBK304386] | 62.1825 |
| O=C1CN(C(=O)NCCc2c[nH]c3ccccc23)CCN1 [CBK155866] | 83.891 |
| O=C(c1ccc2ccccc2c1)C12CN3CN(CN(C3)C1)C2 [CBK009031] | 108.126 |
| Cn1cc(C(=O)NC(Cc2ccsc2)c2cccnc2)cn1 (centres unmarked) [CBK285118] | 93.999 |
| Cc1cc(C)cc(NS(=O)(=O)c2ccc(NC(=O)C(C)Oc3ccc(Cl)cc3Cl)cc2)c1 (centres unmarked) [CBK264894] | 78.4984 |
| CN1CCN(CCCOc2ccc(OCc3ccccc3)cc2)CC1 [CBK265077] | 100.877 |
| CN1CCN(C(C(=O)O)c2c[nH]c3cc(OCc4ccccc4)ccc23)CC1 (centres unmarked) [CBK286654] | 83.231 |
| Nc1nc(-c2ccc(Cl)cc2)c(CC(=O)O)s1 [CBK287188] | 117.53 |
| COc1nc2ccccc2nc1CCc1nc(-c2ccccc2)no1 [CBK269840] | 106.663 |
| O=C(Cc1csc(-c2ccc(Cl)cc2)n1)Nc1cccnc1 [CBK107300] | 108.076 |
| CC(C)[C@@H](CO)Nc1nc(-c2cccc(Br)c2)cnc1N [CBK063758] | 66.3082 |
| CC(C)Nc1ccc(C(=O)N2CCC(N3CCOCC3)CC2)cn1 [CBK304353] | 37.5274 |
| CCOc1ccc(-c2ccnc(N3CCCC(C)(O)C3)n2)cc1C(=O)O (centres unmarked) [CBK307652] | 55.3549 |
| Clc1ccc(Cl)c(-c2ccc(CNCCCN3CCOCC3)o2)c1 [CBK278190C] | 104.161 |
| CC(NC(=O)C1C2CCC(CC2)C1C(=O)O)c1ccncc1 (centres unmarked) [CBK287061] | 106.029 |
| Cc1ccc(C2CCCN2C(=O)c2cccn(CC(=O)Nc3ccc(F)cc3)c2=O)cc1C (centres unmarked) [CBK286528] | 111.697 |
| COc1ccc(C2Oc3cccnc3N(CCCN(C)C)C2=O)cc1 (centres unmarked) [CBK007694] | 69.8596 |
| NNC(=O)C(NC(=O)c1ccccc1)c1n[nH]c(=O)c2ccccc12 (centres unmarked) [CBK261144] | 87.3265 |
| O=C(O)COc1ccc(Br)cc1/C=N/Nc1ccccn1 [CBK262369] | 87.3666 |
| CCn1c2cc(C)oc2c2cnn(CC(=O)N3CCCC3)c(=O)c21 [CBK284215] | 72.2319 |

| Compound | % of control remaining |
| --- | --- |
| Cc1ccc(C(=O)Nc2cccc(CCc3ccncc3)c2)c(=O)n1C [CBK285556] | 69.8606 |
| COc1ccc([C@@]23CC[C@@H](NC(=O)Nc4cccc5nsnc45)C[C@@H]2N(C)CC3)cc1OC [CBK038874T] | 79.7662 |
| Nc1ncc(-c2cncnc2)nc1-c1ccc(CCC(=O)O)cc1 [CBK064120] | 138.101 |
| NC(=O)c1c(NC(=S)NC(NC(=O)c2ccco2)C(Cl)(Cl)Cl)sc2c1CCCC2 (centres unmarked) [CBK261055] | 81.0743 |
| Cc1ccc2nc(NC(=O)C(C)(C)C)nc(O)c2c1 [CBK021975] | 60.7748 |
| Cn1cncc1CN1C[C@@H]2CCCN2C[C@@H]1Cc1ccccc1 [CBK283027] | 96.8426 |
| CC(=O)N1CCOc2ccccc21 [CBK050388] | 65.8974 |
| COc1ccc(C2CCN(Cc3ccncc3)CC2)cc1 [CBK283563] | 92.8515 |
| C[C@@H](Nc1nccnc1-c1ccc(C(=O)N2CCOCC2)cc1)c1ccccc1 [CBK037058] | 68.52 |
| OC12CCCCC1CN(Cc1nc3ccccc3[nH]1)CC2 (centres unmarked) [CBK282995] | 93.8987 |
| O=C(c1ccccc1)c1ccc2n1CCC2C(=O)Nc1ccccc1F (centres unmarked) [CBK300530] | 79.8578 |
| COc1ccc(C(=O)Nc2nc3c(C)c(C)ccc3s2)cc1 [CBK291210] | 84.3168 |
| O=[N+]([O-])c1ccccc1S(=O)(=O)NCCSCc1ccc(Cl)c(Cl)c1 [CBK058810] | 88.7239 |
| Cc1nc2c(OCC3CCCCC3)cccn2c1N(C)CC1CC1 [CBK147279] | 47.9232 |
| COc1cc(-c2cc(-c3ccccc3)nc(SCC(=O)O)c2C#N)cc(OC)c1OC [CBK131867] | 76.8948 |
| Cc1ccnc(NC(=O)c2ccccc2)c1 [CBK004031] | 18.1772 |
| O=C(c1ccc(-c2nccnc2NCc2cccs2)cc1)N1CCOCC1 [CBK037059] | 86.2643 |
| COc1ccc(-c2nnc(SCC(=O)NC(=O)c3ccccc3)n2CC(C)C)cc1 [CBK297527] | 66.0193 |
| CS(=O)(=O)c1ccc(Cn2cc(CN3CCC(Sc4ccccn4)CC3)nn2)cc1 [CBK149475] | 91.121 |
| O=S(=O)(Cc1ccccc1)NCc1ccccn1 [CBK262241] | 83.5391 |
| NS(=O)(=O)c1ccc(NC(=S)Nc2nn(Cc3ccc(Cl)c(Cl)c3)cc2Br)cc1 [CBK267082] | 77.5471 |
| CC(C)(C)OC(=O)N1CCC(Oc2nccc3c2ccn3Cc2ccc(S(C)(=O)=O)cc2)CC1 [CBK132881] | 32.1208 |
| O=[N+]([O-])c1ccc(S(=O)(=O)Nc2nnc(Cc3ccc(Cl)cc3)s2)cc1 [CBK200046] | 90.5984 |
| Cc1ncsc1CCOc1nc2ccccc2nc1NC(C)C [CBK115736] | 85.6133 |
| Cc1cc(C)cc(OCC(=O)NNC(=O)CN2C(=O)c3ccccc3C2=O)c1 [CBK262394] | 116.555 |
| O=C(O)CCN1C(=O)c2ccc(NC(=O)Cc3cccs3)cc2C1=O [CBK268240] | 100.124 |

From publication PMC12040169 (PLOS Biology, 2025)
